# Reference: the RNAGym collection of RNA variant scans (doi:10.1093/nar/gkz1192)
# Read counts are not given, so values of variants with three or more changes are uncertain.
# B1: CPEB3 Ribozyme (parent)
# chain: UAACAGGGGGCCACAGCAGAAGCGUUCACGUCGCAGCCCCUGUCAGAUUCUGGUGAAUCUGCGAAUUCUGCUGUAUAUCUC
# Variants of: B1
# Assay: self-cleavage, relative activity (ratio to wild type); higher = more cleavage; in vitro, sequencing
# In short: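 Relative activity compares each variant's cleaved/total read fraction with that of the unmutated ribozyme. To get these fractions, barcoded CPEB3 ribozyme libraries from rounds of error-prone PCR were transcribed with T7 RNA polymerase for 5 hours at 37°C and then given 15 min of DNase I treatment before EDTA was added. The RNAs were reverse transcribed with template switching and sequenced on Illumina, and DNA sequencing linked barcodes to variants. A minimum of 5 reads applied, and three batches were averaged.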
row,Variant,self-cleavage
1,U51C U54C U72G,0.62
2,U51A U54C A56G U67C A77G,0.22
3,U51C U54C A64U U72C,0.52
4,U51C G52A U66C U69C,0.42
5,U51C U60C C62U,0.24
6,U54A A56G U60A,0.59
7,U51A U58C U67G,0.27
8,U51A U54A U76A,1.09
9,C50A U51C G52C U54C C81U,1.2
10,G52C U54C U60C,0.51
11,U51A A57U U72A,0.51
12,U51C A57G U66C,0.47
13,U49G A56U U69A U72C G73U,0.31
14,U51A A56G C62G,0.68
15,C50G G53U A56G A75G,0.57
16,U51C U54C U58C U69A U72C U78C,0.29
17,U51A C62U U78C,0.24
18,U51G U54C U67C,0.22
19,U51C U58C A65G U72C,0.32
20,U51C U72C U76G,1.18
21,C50U G55U U78C U80A,1.16
22,U51C U58C U66C,0.19
23,U51C U54A U72A,0.99
24,U51C G53A U58A A64U,0.29

row,Variant,self-cleavage
1,U51C U54A U60A,0.57
2,U54A A56G A77U,0.9
3,U51A A56G U78C,0.78
4,U51A A64U U67C,0.31
5,U51C U54A U67C,0.89
6,G53U U54C C62U,0.16
7,U51C U74G U80C,1.26
8,U51A A56U A65G U78G,0.17
9,U51C A57G U69A A77U U78C,0.62
10,U51A A56G U74A,1.03
11,U51C A64G U67C,0.31
12,G52U U60C U72C A75G,0.49
13,U51A U60C U74G U80C,0.72
14,U51C C68U U69C,0.52
15,G52C A65G U72A,0.6
16,U51C U67C U78A,0.41
17,U51A G53A U69A U72A,0.43
18,C50U U58A C71A U76C,0.21
19,U51C A57G A77C U78C,0.75
20,U51C A56C U78C,0.25
21,U51A A64U U78G,0.29
22,C50A G61A U69C,0.38
23,U51C A56G U72C,1.02
24,U51C A56G U58C A64U,0.18

row,Variant,self-cleavage
1,U51C U60C A65G G73A C81U,0.19
2,G53C U72A U74C,1.19
3,G52C U58C U72C,0.63
4,U51A A64G U78C,0.84
5,U51A A64G U67C U72G,0.28
6,U51A A64U U72C U74C,0.74
7,U51C G52A U54A,1.04
8,U51C A64G U76A,1.13
9,U51C U54A A77G,1.15
10,C50U A56G U69A,0.2
11,U51A U72C U80A,1.29
12,U51A A65U U69A,0.47
13,U51G U76C U78C,1.04
14,U51C G52U U66C,0.66
15,G52U G53C U54C A56C,0.9
16,G53U U60C G63A,0.56
17,U51A U72C U76A,1.3
18,U49G G52A C79U,0.85
19,U51A C62U U67C U74C,0.37
20,U51C A57G A77G,0.55
21,U51C A56G U67G,0.33
22,U51C G53A G61C A77G,0.75
23,U51A G55U U58C A64G U80C,0.16
24,U51C U58C U60A,0.22

row,Variant,self-cleavage
1,U51A U54G A56G U72A,0.2
2,G52U U69C U80C,0.5
3,U51G A64U U76A A77G,0.22
4,U51G U67C U80A,0.16
5,U51C A57G U67A,0.5
6,U51C U66C U72A,0.37
7,U51A C68A U69C,0.34
8,U51A U54C A77G,1.09
9,C50U A57G U60C U76C,0.25
10,G52U A57G U72A U74C,1.28
11,G52C A56U G63A,0.87
12,G53C U60C U78C,0.66
13,U51A U54A U74C,1.19
14,U51A U67C A75C,0.57
15,C50U U60C A65G,0.17
16,C50A U78A U80A,1.12
17,U51G U60A U80A,0.67
18,U51C A57G U58C,0.37
19,U51C U66C U72C U76A,0.61
20,U51C U69A U78C,0.92
21,U51G A56U U72C U78C,0.49
22,C50U U51A U72C A77G,1.28
23,U51A U72C A77G,1.26
24,U51C A64G U78C,0.71

row,Variant,self-cleavage
1,U51C G73A U78C C81U,1.32
2,U54A A56G A75G,0.65
3,G53C A64G U76A,1.12
4,U51C A65G A75U,0.65
5,U51A U58A A64U,0.15
6,G53C A64G U69C,0.19
7,U51C A56U U76C U78C,0.45
8,U51A U60C U66A,0.26
9,U51A U54C A75U,1.2
10,G52C U60C U76A A77G,0.3
11,C50A U54C A56G U60C,0.15
12,U51A C59U U66C U74C,0
13,U51C U60C C62A C71A,0.28
14,U51C A65G A77U,0.39
15,G52C A57G U78C,1.11
16,G53A U74C A75U,1.22
17,G52A U76C A77G,1.17
18,G53A U60C G63A,0.75
19,G52A A56G A64G A75G,0.6
20,C50A U51C U80A,0.99
21,U51C G63A U67C U69C,0.49
22,C50U G63A A65U,0.47
23,G52C A56G U58C U60A,0.3
24,U51C U54C C62A,0.3

row,Variant,self-cleavage
1,G52A A65G U67C C71U,0.06
2,U51A U58C U69C,0.56
3,U51C U60C G63U,0.39
4,G52A U69C U80A,0.71
5,U51A U66A U74C,0.89
6,U51A U60A C79U,0.48
7,C50U G55U G73C A77G,1.32
8,G52U A56U A64G,0.76
9,U51C U54C U78C,1.08
10,U51C A57G U72A U78A U80C,0.39
11,U51C A56U A57G U80C,0.29
12,U51C U58C U78G,0.31
13,C50A U66C A75G,0.39
14,G52C U54C U72C,1.15
15,G53U A56G U60C,0.88
16,U51G U60C U74A,0.54
17,U51A A56G A75G,0.32
18,U51C A64U U78A U80C,0.52
19,U51A U58G U72A U78C,0.22
20,C50A A56G A57G,0.17
21,U51C U60A U69C G70C U80C,0.41
22,U49G C50G U51C A56G,0.19
23,U51A A57G A75U,0.69
24,U51C U54C U66C,0.44

row,Variant,self-cleavage
1,U51A U58C C79U,0.3
2,U51C A56G A57G U69C,0.22
3,G53A A57G U69C U72C A77U U80C,0.47
4,U51A U54C U60C,0.93
5,G53A A65G U80C,0.46
6,U51C A57G U78G U80C,0.75
7,U51A U60A U74C A75G,0.86
8,U51A A64G U69A,0.28
9,U51A C59U U72C U78C,1.07
10,U51C A56G A64G U66C G73A U78C,0.41
11,U51C U60A A64G,0.21
12,U51A A57G C68U C71U U78C,0.31
13,U51G A56U A57G A64G,0.17
14,G53C U67C U72C,0.47
15,U51A U54G U67C,0.35
16,U51C A65C U67C,0.35
17,U51A G61A U67C U72A,0.44
18,U51A G55A A64U U66C,0.51
19,U51C U54G C62G,0.26
20,U51C U54C C71A,0.38
21,G53A U58A C81A,0.36
22,U49G U51A G55A U60A U74A,0.1
23,G53A U60C U78C,0.85
